Read-outs that look alike come from different tables or passages of the source.
Key:
ferret emesis model = assay type: in vivo; details: 20 mg/kg
gastrointestinal transit = assay type: in vivo; details: 100 mg/kg
pancreatic tumors = details: single dose of veliparib
[1] = 20 mg/kg gavage; cited from earlier work
[2] = cited from earlier work
[3] = with topotecan 0.6 mg/m^2/d; cited from earlier work
[4] = tested on: refractory solid tumors and lymphomas; details: cited from earlier work
MiaPaCa-2 = experiment: radiosensitization in vitro (PAR Western/ELISA, clonogenic dose enhancement, caspase 3/7); details: co-treatment with irradiation

Compound: C[C@]1(c2nc3c(C(N)=O)cccc3[nH]2)CCCN1 [veliparib]
- multiple of predicted Cmax at which emesis was seen (ferret emesis model): 31 fold
- multiple of predicted clinical Cmax (gastrointestinal transit): 7 fold
- survival at 30 days (pancreatic tumors): 63%
- mean plasma concentration [1]: 6610 ± 260 ng/mL
- mean plasma concentration ([2]; 100 mg/kg): 1630 ± 140 ng/mL
- effect on gastrointestinal transit ([2]; up to 100 mg/kg): no significant effect
- MTD [3]: 10 mg BID
- MTD ([4]; combined with 50 mg QD cyclophosphamide): 60 mg QD
- tolerability ([4]; with metronomic cyclophosphamide): well tolerated
- radiation-induced upregulation of PAR protein (MiaPaCa-2): abrogated

From patent publication US11149300B1, “Methods of treating gastrointestinal malignancies” (Cedars-Sinai Medical Center, priority 2018, dated 2021)
